Test results as given in PubChem BioAssay (Tox21).
“And” between values parts separate entries of the source, which are not always exact repeats. Equal entries are not always repeated. The shares of active, inactive and inconclusive entries below differ from those in the screen. A call without a number means that no potency is given here. Potencies of inconclusive entries are doubtful fits and often do not repeat. A structure can be active in one record and inactive in another. The source made the active and inactive calls. The call rests on the fitted dose curve; in most records, active means well fitted cell-killing curve with a large enough effect in the repeat runs; inconclusive means weak or mixed curves, or effect the other way; inactive means no such curve, though single readings can be large or run the other way.

Assay: qHTS assay to identify small molecule agonists of the estrogen receptor alpha (ER-alpha) signaling pathway in the presence of an antagonist - cell viability counter screen (AID 1259386);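 further: cells exposed to compounds for 22 h at 37 °C before the viability read; nearly all actives have a fitted effect of over 30% in size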
Details: VM7Luc4E2 viability, CellTiter-Fluor fluorescence, 22 h; series mostly up to 92.4 µM
Description: National Center for Advancing Translational Sciences [NCATS]
NIH Chemical Genomics Center [NCGC]
U.S. Environmental Protection Agency [EPA]
National Institutes of Environmental Health Sciences [NIEHS]
National Toxicology Program [NTP]
U.S. Food and Drug Administration [FDA]
Estrogen receptor (ER), a member of nuclear hormone receptor plays an important role in development, metabolic homeostasis and reproduction. Two subtypes of ER, ER-alpha and ER-beta, have similar expression patterns with some uniqueness in both types. Endocrine disrupting chemicals (EDCs) and their interactions with steroid hormone receptors like ER causes disruption of normal endocrine function. Therefore, it is important to understand the effect of environmental chemicals in ER signaling pathway. For identifying ER agonists, VM7Luc4E2 cell line has been used in the current assay.
VM7Luc4E2 cell line (provided by Denison MS, University of California) endogenously expresses full-length ER-alpha and is stably transfected with a plasmid containing four estrogen responsive elements (ERE) upstream of a luciferase reporter gene. This current screening for measuring luciferase reporter gene activity using VM7Luc4E2 cells against Tox21 10K library collection is a confirmation study on agonist mode screening in presence of ER-antagonist (ICI-182,780) at 10.0nM final concentration. The cytotoxicity of the compounds was tested in parallel by measuring the cell viability using CellTiter-Fluor assay system (Promega, Madison, WI) in the same wells.
Tox21 Assay Protocol Summary:
VM7Luc4E2 cells were cultured in phenol red free assay medium containing 10% charcoal stripped FBS for 5 days prior to the assay. The cells were dispensed at 4,000 cells in 4uL of assay medium per well into white wall/solid-bottom 1536-well plates (Corning Life Sciences, Corning, NY) using a Multidrop Combi (Thermo Fisher Scientific Inc., Waltham, MA) dispenser. After the assay plates were incubated at 37C and 5% CO2 for 24hr, 1uL of 10.0nM (final concentration) ICI-182,780 or assay buffer was added using two separate tips of Flying Reagent Dispenser (FRD, Aurora Discovery, San Diego, CA). Then 23nL of compounds dissolved in DMSO at 15 concentrations and positive controls or DMSO only was transferred to the assay plates by a Pintool station (Wako, San Diego, CA). The assay plates were incubated at 37C and 5% CO2 for 22hr. After 21hr incubation at 37C, 1uL/well CellTiter-Fluor reagent (Promega Corporation, Madison, WI) was added to each well using FRD and after 1hr incubation at 37C and 5% CO2, the fluorescence signal was measured on ViewLux plate reader (PerkinElmer, Shelton, CT).
Potency means the concentration at half of the fitted maximal effect; tags describe the fitted curve by direction and shape.

Row | Compound | Potency
1 | CCCCCC=O | inconclusive: 61.1 µM [cytotoxic, partial curve, poor fit]
2 | COc1cc2c(cc1OC)C(=O)C(CC1CCN(Cc3ccccc3)CC1)C2 (stereo not given) | inconclusive: 16.8 µM [cytotoxic, partial curve, poor fit]
3 | CCCCN=C(N)N=C(N)N | inactive
4 | COc1ccc(CCN(C)CCCC(C#N)(c2ccc(OC)c(OC)c2)C(C)C)cc1OC (stereo not given) | inconclusive: 15 µM [cytotoxic, partial curve]
5 | NC(=O)Nc1ccc(Cl)cc1 | inactive
6 | CC(C)OCCO | inactive
7 | C=C(C)[C@@H]1CC=C(C)C(=O)C1 | inactive
8 | O=C(O)CCn1c2c(c3ccccc31)C[C@H](NS(=O)(=O)c1ccc(F)cc1)CC2 | inactive
9 | Cc1ccccc1N1CCN(CCc2nnc3n2CCCC3)CC1 | inactive
10 | Nc1cc([N+](=O)[O-])ccc1Cl | inactive
11 | CCC1(C)CC(=O)NC1=O (stereo not given) | inconclusive: 1.06 µM [cytotoxic, full curve, poor fit]
12 | CC(C)(Oc1ccc(CCNC(=O)c2ccc(Cl)cc2)cc1)C(=O)O | inconclusive: 43.3 µM [cytotoxic, partial curve]
13 | O=C(O)CCc1ccccc1 | inactive
14 | CCOc1cc([N+](=O)[O-])c(OCC)cc1N1CCOCC1 | inconclusive: 48.6 µM [cytotoxic, partial curve]
15 | CC(C)(C)NC[C@H](O)COc1cccc2c1CCCC2=O | inactive
16 | CCCCCCCCO | inconclusive: 6.9 µM [cytotoxic, single point]
17 | O=C(O)CCNC(=O)c1ccc(N=Nc2ccc(O)c(C(=O)O)c2)cc1 | inconclusive: 26.6 µM [cytotoxic, partial curve]
18 | CO[Si](C)(OC)OC | inactive
19 | C=C[C@H]1CN2CC[C@H]1C[C@H]2[C@H](O)c1ccnc2ccc(OC)cc12 | inconclusive: 54.5 µM [cytotoxic, partial curve]
20 | C/C(=N\[Si](C)(C)C)O[Si](C)(C)C | inactive

Row | Compound | Potency
21 | O=S(=O)(O)c1ccc(N=Nc2c(O)ccc3cc(S(=O)(=O)O)ccc23)cc1 | active: 48.8 µM and active: 27.3 µM
22 | CCCCN(CCCC)CCCOC(=O)c1ccc(N)cc1 | inconclusive: 16.8 µM [cytotoxic, full curve, poor fit]
23 | O=Cc1cc2ccccc2o1 | inactive
24 | Nc1ccc([N+](=O)[O-])c(N)c1 | active: 29.9 µM
25 | CCOc1cc(N)c(Cl)cc1C(=O)NCC1CN(Cc2ccc(F)cc2)CCO1 (stereo not given) | inconclusive: 33.5 µM [cytotoxic]
26 | COC(=O)CC(C)=O | inactive
27 | CC/C=C\CC1=C(C)CCC1=O | inactive
28 | Nc1cccc(S(=O)(=O)c2cccc(N)c2)c1 | inactive
29 | C=CN1CCCCCC1=O | inactive
30 | O=C1OC(=O)c2cc(Oc3ccc4c(c3)C(=O)OC4=O)ccc21 | inactive
31 | Cc1nc2n(c(=O)c1CCN1CCC(C(=O)c3ccc(F)cc3)CC1)CCS2 | inconclusive: 21.1 µM [cytotoxic, partial curve, poor fit]
32 | COc1cc(C(=O)NCc2ccc(OCCN(C)C)cc2)cc(OC)c1OC | inactive
33 | COCCOC(=O)c1ccccc1C(=O)OCCOC | inconclusive: 68.6 µM [cytotoxic, single point]
34 | CC(C)[C@H](N)C(=O)OCCOCn1cnc2c(=O)[nH]c(N)nc21 | inactive
35 | C[C@](N)(Cc1ccc(O)c(O)c1)C(=O)O | inconclusive: 48.9 µM [cytotoxic, partial curve] and active: 54.3 µM
36 | Cc1ncc([C@@H](CCCCCCc2ccc3c(n2)NCCC3)CC(=O)O)cn1 | inconclusive: 0.0273 µM [cytotoxic, full curve]
37 | CC(=O)OCCCc1ccccc1 | inactive
38 | CC(CN)CC(C)(C)CCN (stereo not given) | inconclusive: 35.3 µM [cytotoxic, partial curve]
39 | O=S(=O)(O)c1ccc2c(N=Nc3ccc(S(=O)(=O)O)c4ccccc34)c(O)c(S(=O)(=O)O)cc2c1 | inconclusive: 2.7 µM [cytotoxic, partial curve]
40 | CC(=O)Nc1ccc(S(=O)(=O)Nc2ccc([N+](=O)[O-])cc2)cc1 | active: 23.7 µM
